Out of some 48,000 compounds screened, about 120 (0.25%) were called active. Roughly 4% stayed inconclusive and do not appear here. Calls come from the whole dose curve; as a rule, active = well fitted activation curve with a large enough effect; inconclusive = small, poorly fitted or top-dose-only effect, or another doubt; inactive = no such curve, though single readings can be large or run the other way. The list shows a part of the results.
Assay: Primary qHTS for Identification of Small Molecule Activators of Huntingtin-Antisense Promoter Activity; note: nearly all actives have a fitted effect of over 55% in size
Conditions: HEK293 HTT-AS promoter firefly luciferase reporter, 24 h; series mostly up to 57.5 µM; activity change, positive = activation: at the top concentration
How it was run: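 HEK293 Fluc reporter, 2,500 cells/well, 24 h pre-culture; cpds up to 57.5 uM final, 24 h 37 degrees C; Dual-Glo, 10 min RT; normalized vehicle = 0%, zero RLU = -100%.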

Activity change, positive = activation, inactive:
Cn1c(=O)c(Oc2ccc(F)cc2F)cc2cnc(NC3CCOCC3)nc21 -16.6%
CCOc1ccc(NC(=O)Cn2c(=O)n(-c3ccccc3)c(=O)c3ccc(C(=O)NCc4ccc5c(c4)OCO5)cc32)cc1 -49.1%
Cc1ccccc1S(=O)(=O)Cc1ccc(C(=O)NC2CCC(C)CC2)o1 (centres undefined) -3.67%
Cc1nc2nc[nH]n2c(=O)c1CCC(=O)Nc1ccc(F)cc1 -5.36%
Cc1ccc(CNC(=O)C2CCN(S(=O)(=O)c3ccc4[nH]c(=O)ccc4c3)CC2)cc1 -27.4%
CCC(C)NC(=O)CSc1nc2cc3c(cc2c(=O)n1CCCCCC(=O)NCc1ccc2c(c1)OCO2)OCO3 (centres undefined) -3.61%
Cc1cc(-c2ccc(C)c(S(=O)(=O)NC3CCCCC3)c2)on1 -21.6%
CCOc1ccc(-n2ccnc2SCC(=O)Nc2nc3ccc(C)cc3s2)cc1 -16%
CC1(C)C(=O)N(CC(=O)Nc2cccc(F)c2)c2ccc(S(=O)(=O)N3CCCCC3)cc21 -22.1%
Cc1nn(-c2ccccc2)c2c1N(CC(=O)N1CCN(c3ccc(F)cc3)CC1)C(=O)CS2 3.41%
COc1cccc2cc(C(=O)Nc3ccc(F)c(F)c3)c(=O)oc12 4.22%
O=C(Cn1c(=O)n(Cc2cccs2)c(=O)c2cccnc21)Nc1ccc(F)cc1 -37.7%
CCCCNC(=O)C(Cc1ccccc1)NS(=O)(=O)c1ccc2c(c1)c(=O)n(C)c(=O)n2C (centres undefined) -5.72%
CCn1c(=N)c(C(=O)NCc2ccccc2)cc2c(=O)n3cc(C)ccc3nc21 -3.98%
Cc1oc(-c2ccc(C(=O)NCc3ccc(Cl)cc3)cc2)nc1CS(=O)(=O)c1ccccc1 -33.1%
CC(C)c1ccc(N2C(=O)CS(=O)(=O)C23C(=O)N(Cc2cccc(F)c2)c2ccccc23)cc1 (centres undefined) -27.5%
CCOc1ccc(-c2ncnn2-c2sc3c(c2C#N)CCCCC3)cc1 14.9%
Cc1cc2c(C(C)C)c(O)c(O)c(C=O)c2c(O)c1-c1c(C)cc2c(C(C)C)c(O)c(O)c(C=O)c2c1O
Cc1ccc(C)c(NC(=O)c2cc(S(=O)(=O)N3CCCc4ccccc43)ccc2F)c1 -14%
Cc1cc(C)c(OCC(=O)N(Cc2ccco2)Cc2ccco2)c(C)c1 -22.2%
COc1ccc(Cn2ccc3nc(C)c(C(=O)Nc4cc(C)cc(C)c4)cc3c2=O)cc1 -16.4%
Cc1nc2ccccc2c(=O)n1-c1ccc(NC(=O)c2cccc([N+](=O)[O-])c2)cc1 -17.2%
CSc1ncc(C(=O)Nc2c(C)cccc2C)c(-c2ccccc2)n1 -12.3%
COc1ccccc1CCNC(=O)c1ccc(-c2nc(CSc3ccc(C)cc3)c(C)o2)cc1 -24.1%
CCCCOc1cccc(C(=O)Nc2cccc(-c3nc4ncccc4o3)c2C)c1 -32.8%
CCOC(=O)C1=C(C)NC(=O)NC1c1cn(-c2ccccc2)nc1-c1ccc(OCC)cc1 (centres undefined) -22.3%
C=C1c2cccc(O)c2C(O)=C2C(=O)[C@@]3(O)C(O)=C(C(N)=O)C(=O)[C@@H](N(C)C)[C@@H]3[C@@H](O)[C@H]12 -54.1%
Cc1ccc(NC(=O)C2CCCN(c3ncnc4onc(-c5ccc(F)cc5)c34)C2)c(Cl)c1 (centres undefined) -5.12%
CCC(C)NC(=O)Cn1ccc2cc(S(=O)(=O)N3CCCCC3)ccc21 (centres undefined) -8.09%
Cc1cccc(N2CCN(C(=O)CN3C(=O)COc4ccc(S(=O)(=O)N5CCCCCC5)cc43)CC2)c1C -31.6%
CSc1ncc(C(=O)N2CCN(c3cc(C)ccc3C)CC2)c(C)n1 -29.6%
CCCCn1cc(S(=O)(=O)c2ccc(OC)cc2)c(=O)c2cc(CC)ccc21 -2.26%
CNC(=O)C1CCC(Cn2c(=O)c3sccc3n(CC(=O)Nc3ccc(C)c(C)c3)c2=O)CC1 (centres undefined) -22.8%
O=S(=O)(c1ccccc1)c1nnn2c1nc(NC1CCCCC1)c1sccc12 -13.7%
COc1ccc(CCNC(=O)C2CCC(CNS(=O)(=O)c3ccc(C)cc3)CC2)cc1OC (centres undefined) -19%
Cc1ccc(Cl)cc1NC(=O)Nc1nnc(N(C)Cc2ccccc2)s1 -29%
COc1ccc(-c2cc(C)no2)cc1S(=O)(=O)N1CCc2ccccc21 -20.5%
CCc1ccc(NC(=O)CN(c2ccc(C)cc2)S(=O)(=O)c2cccs2)cc1 -9.08%
Cc1ccc(CN(C(=O)c2ccccc2)c2ccccn2)o1 -12.7%
O=C(O)CCCCn1c(SCC(=O)Nc2ccccc2C(F)(F)F)nc2ccsc2c1=O -14.4%
CCC1CN(C(=O)N2CCC(C(=O)NCCc3ccccc3Cl)CC2)c2cc(C)ccc2O1 (centres undefined) -42.4%
CCCC(O)c1nc2ccccc2n1Cc1ccccc1OC (centres undefined) -41.1%
COc1cc(NC(=O)CN2c3ccccc3S(=O)(=O)c3ccccc32)cc(OC)c1 -12%
Cc1ccc(Nc2nnc(-c3ccc(C)c(S(=O)(=O)N4CCN(C)CC4)c3)c3ccccc23)cc1 -1.89% [at 11.5 µM, percent change from vehicle, -100% = no light]
COCCNC(=O)CSc1nc(-c2cc(OC)c(OC)c(OC)c2)[nH]c1-c1ccc(Cl)cc1 -14.3%
CCOCCCn1c(SCC(=O)OCC)nc2c(sc3ccccc32)c1=O -4.46%
Cc1ccc(C(=O)CSc2nc(-c3ccccc3)nc3c2CCCC3)c(C)c1 -21%
Cc1cccc(C(C)C)c1NC(=O)C1CCCN1S(=O)(=O)c1cccc2nsnc12 (centres undefined) -5.88% [at 11.5 µM, percent change from vehicle, -100% = no light]
CCc1ccc(NC(=O)Cn2c(=O)n(CCCCC(=O)NCc3ccc4c(c3)OCO4)c(=O)c3ccccc32)cc1 -28.5%
CC(=O)c1cc(-c2ccccc2)n(CCC(=O)NCc2ccc(C)cc2)c1C -14.8%
CCOc1ccccc1Nc1sc(C(=O)c2ccccc2)c(N)c1C(=O)Nc1ccccc1 -31.3%
CCOc1ccccc1CNc1ccc2cc(S(=O)(=O)N3CCC(C)CC3)ccc2n1 -31.1%
COc1ccc(-c2nn3c(=O)cc(CN4CCN(C(=O)c5ccc(OC)c(OC)c5)CC4)nc3s2)cc1 -9.99%
COc1ccc(-c2noc(N(c3nc(-c4ccc(OC)c(OC)c4)no3)c3ccccc3OC)n2)cc1OC 2.71%
CC(C)(C)c1ccc(C(=O)Nc2ccc3c(c2)CCCN3C(=O)c2cccs2)cc1 -24.6%
Cc1ccc(OCC(=O)Nc2nnc(S(=O)(=O)N3c4ccccc4CC3C)s2)cc1 (centres undefined) -15.6%
Cc1ccc(C(=O)Nc2ccc(S(=O)(=O)N3CCC(c4nc5ccccc5s4)CC3)cc2)cc1 -16.6%
Cc1ccc(NC(=O)c2nc(S(C)(=O)=O)ncc2N(Cc2ccco2)Cc2cccs2)c(C)c1 -31.1%
Cc1ccc(NC(=O)CSc2nc(=O)n(CCN3CCOCC3)c3c2CCC3)c(C)c1 -27.1%
C[C@@H]1COC(Nc2ccc3ncnc(Nc4ccc(OCc5nccs5)c(Cl)c4)c3c2)=N1 -31.7%
CC(=O)N1CCc2nc3sc(C(=O)c4ccc(F)cc4)c(N)c3c(C(F)(F)F)c2C1 -31.3%
CC(=O)c1cccc(NC(=O)c2nc(-c3ccccc3)n(-c3cccc(Cl)c3)n2)c1 -15.7%
CCc1ccc(NC(=O)C(=O)NCC(c2cccnc2)N2CCN(c3ccc(F)cc3)CC2)cc1 (centres undefined) -21.5%
Cc1ccc(OCCCCn2nnc3sc4c(c3c2=O)CCCC4)cc1 -7.85%
Cc1ccc(NS(=O)(=O)c2ccc3[nH]c(=O)oc3c2)c(C)c1 -11.9%
O=C(CCC1N=C2c3ccccc3N=C(SCc3ccc(Cl)cc3)N2C1=O)NCCc1ccccc1 (centres undefined) -12.9%
COc1cc2nc(SCC(=O)Nc3c(C)cc(C)cc3C)n3nc(CCn4c(C)nc5ccccc54)nc3c2cc1OC -14.5%
Fc1ccc(C(NCCc2ccc(Cl)cc2)c2nnc(-c3ccccc3)o2)c(Cl)c1 (centres undefined) -20.6%
COc1ccccc1CNC(=O)CCn1c(=O)c2ccccc2n(CC(=O)Nc2ccc(C)cc2Cl)c1=O -7.84%
CCOC(=O)c1c(S(=O)(=O)NCC(=O)N2CCN(c3ccccc3)CC2)c(C)n(C)c1C -6.02%
CCc1cccc(C)c1NC(=O)c1cc(S(=O)(=O)NCc2ccccc2Cl)ccc1F -41.9%
CCCn1c2ccccc2c2cnn(CC(=O)N(C)c3ccccc3CC)c(=O)c21 -41.1%
CC(=O)NCC(c1ccc2c(c1)OCO2)N1CCN(c2ccccc2)CC1 (centres undefined) -6.76%
CCc1ccc(-n2c(=O)c3c(C)c(C)sc3n(CC(=O)NCc3ccc(C)cc3)c2=O)cc1 10.2%
CCCN(CCC)C(=O)Cn1c(=O)n(-c2ccccc2)c(=O)c2c3c(sc21)CCCC3 -22.9%
O=S(=O)(NCc1nc2cccnc2n1Cc1ccccc1)c1ccc2c(c1)CCCC2 -21.5%
N#C/C(=C/c1ccc(Cl)cc1)c1nc(-c2ccc(Br)cc2)cs1 -4.74%
Cc1ccc(CSc2oc(-c3ccco3)nc2S(=O)(=O)c2ccc(C)cc2)cc1 -12.5%
COc1cc(/C=C(\C#N)c2nc3ccccc3[nH]2)cc(Cl)c1OCc1ccccc1Cl -35.4%
COc1ccc(NC(=O)c2ccc3nc(CCc4ccccc4)oc3c2)c(OC)c1 34.2%
Cc1ccccc1NC(=O)N1CCc2c(sc3c2CCCC3)C1c1ccccc1 (centres undefined) -22.6%
CCOc1ccc(C(=O)Nc2c(C(=O)c3ccc(OC)cc3)oc3ccccc23)cc1 -5.5%
O=C(NCCc1ccccc1)c1ccc(Cn2c(SCc3cccc(F)c3)nc3cccnc32)cc1 3.46%
CCS(=O)(=O)c1ncc(N(Cc2ccccc2)Cc2ccco2)c(C(=O)Nc2ccc(C)c(C)c2)n1 -24.3%
CCn1c(NCc2ccc(OC)cc2)nc2ccccc21 29%
CCOc1ccc(NC(=O)c2ccc3c(=O)n4nc(Nc5ccccc5C)sc4nc3c2)cc1 -6.04%
COc1cc(C(CC(=O)Nc2ccc(F)cc2F)N2Cc3ccccc3C2=O)cc(OC)c1OC (centres undefined) -33.2%
COCCNC(=O)CCc1c(C)nc2c(-c3ccc(F)cc3)c(C)nn2c1C -36.3%
COc1ccc(CCNC(=O)CCCCn2c(=O)c3ccccc3n(Cc3ccccc3C)c2=O)cc1OC -40.3%

Source: PubChem BioAssay AID1508624 (National Center for Advancing Translational Sciences (NCATS), 2021)
